Compound in this test: C=CC(=O)Nc1cccc(Nc2nc(NC3CCC(N(C)C)CC3)nc3c2ncn3C(C)C)c1 [WZ3105]
The test can be described thus: Viability of human cancer cell lines after 72 h of drug (GDSC screen). Conditions: top dose inferred. Here is the method: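 Human cancer cell lines in 384-well plates, medium with 10% serum, drug for 72 h over a 256-fold dose range (nine 2-fold or five 4-fold steps up to the top dose). Adherent lines were fixed and stained with the nucleic acid dye Syto60, suspension lines read with resazurin; signal relative to control wells, capped at 0 and 100%. One two-parameter sigmoid per drug and line, fitted in a mixed model over all curves with the slope shared within a line.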

pIC50: −log10 of the molar value. IC50 is the fitted dose that halves viability relative to control wells, and lower means more sensitive; fits outside the tested doses are given as limits. AUC, from the same fit, is the share of area under the viability curve across the 256-fold dose range; it is 1 without any effect and falls as sensitivity rises. The top dose, if marked as inferred, was calculated from the reported fits.

Take “Mo-T (hairy cell leukaemia, suspension, top dose 1.28 µM)”: the AUC stood at 0.683 and the pIC50 was 6.58.
On to “NALM-6 (B-cell leukaemia, suspension, top dose 1.28 µM)”, for which the AUC amounted to 0.381 and the pIC50 is 7.40.
On to “NAMALWA (Burkitt lymphoma, suspension, top dose 1.28 µM)”, for which the AUC was found to be 0.579 and the negative-log IC50 (pIC50) was 6.90.
The matching figures for “NB1 (neuroblastoma, semi-adherent, top dose 1.28 µM)”: 0.898 and less than 5.89.
On the same counts, the results for “NB5 (neuroblastoma, adherent, top dose 1.28 µM)” are 0.984 and less than 5.89.
The matching figures for “NB6 (neuroblastoma, adherent, top dose 1.28 µM)”: 0.934 and less than 5.89.
In the case of “NB7 (neuroblastoma, adherent, top dose 1.28 µM)”, the AUC came to 0.752 and the pIC50 is 6.36.
On the same counts, the results for “NB10 (neuroblastoma, adherent, top dose 1.28 µM)” are 0.97 and less than 5.89.
The matching figures for “NB12 (neuroblastoma, adherent, top dose 1.28 µM)”: 0.751 and 6.25.
With “NB13 (neuroblastoma, adherent, top dose 1.28 µM)”, the AUC was determined as 0.971 and the pIC50 is less than 5.89.
For the cell line “NB14 (neuroblastoma, adherent, top dose 1.28 µM)”, the AUC turned out to be 0.857 and the pIC50 is 6.02.
Turning to “NB17 (neuroblastoma, adherent, top dose 1.28 µM)”, the AUC stood at 0.611 and the pIC50 was 6.77.
On the same counts, the results for “NB69 (neuroblastoma, adherent, top dose 1.28 µM)” are 0.888 and 5.94.
Consider “NB(TU)1-10 (neuroblastoma, adherent, top dose 1.28 µM)”, for which the AUC turned out to be 0.982 and the negative-log IC50 (pIC50) was less than 5.89.
On to “NB-4 (acute myeloid leukaemia, suspension, top dose 1.28 µM)”, for which the AUC came to 0.35 and the negative-log IC50 (pIC50) is 7.48.
As to “NCC021 (kidney, adherent, top dose 1.28 µM)”, the AUC amounted to 0.985 and the pIC50 was less than 5.89.
The matching figures for “NCI-H23 (lung adenocarcinoma, adherent, top dose 1.28 µM)”: 0.943 and less than 5.89.
On the same counts, the results for “NCI-H28 (mesothelioma, adherent, top dose 1.28 µM)” are 0.977 and less than 5.89.
In the case of “NCI-H64 (small cell lung carcinoma, suspension, top dose 1.28 µM)”, the AUC worked out at 0.687 and the pIC50 is 6.64.
As for “NCI-H69 (small cell lung carcinoma, suspension, top dose 1.28 µM)”, the AUC turned out to be 0.65 and the pIC50 is 6.66.
Regarding “NCI-H82 (small cell lung carcinoma, suspension, top dose 1.28 µM)”, the AUC was 0.829 and the negative logarithm of the IC50 (pIC50) was 6.13.
The matching figures for “NCI-H187 (small cell lung carcinoma, suspension, top dose 1.28 µM)”: 0.737 and 6.39.
On the same counts, the results for “NCI-H196 (small cell lung carcinoma, adherent, top dose 1.28 µM)” are 0.829 and 6.07.
The matching figures for “NCI-H209 (small cell lung carcinoma, suspension, top dose 1.28 µM)”: 0.686 and 6.56.
On to “NCI-H211 (small cell lung carcinoma, adherent, top dose 1.28 µM)”, for which the AUC turned out to be 0.543 and the negative logarithm of the IC50 (pIC50) was 6.98.
On to “NCI-H226 (lung squamous cell carcinoma, adherent, top dose 1.28 µM)”, for which the AUC was determined as 0.934 and the pIC50 is less than 5.89.
On the same counts, the results for “NCI-H292 (lung adenocarcinoma, adherent, top dose 1.28 µM)” are 0.979 and less than 5.89.
Consider “NCI-H322M (lung adenocarcinoma, suspension, top dose 1.28 µM)”, for which the AUC worked out at 0.892 and the pIC50 is less than 5.89.
On the same counts, the results for “NCI-H345 (small cell lung carcinoma, suspension, top dose 1.28 µM)” are 0.911 and less than 5.89.
On the same counts, the results for “NCI-H358 (lung adenocarcinoma, adherent, top dose 1.28 µM)” are 0.725 and 6.42.
As for “NCI-H441 (lung adenocarcinoma, adherent, top dose 1.28 µM)”, the AUC was 0.962 and the pIC50 was less than 5.89.
On the same counts, the results for “NCI-H446 (small cell lung carcinoma, semi-adherent, top dose 1.28 µM)” are 0.52 and 7.04.
Take “NCI-H460 (large cell lung carcinoma, adherent, top dose 1.28 µM)”: the AUC came to 0.989 and the pIC50 was less than 5.89.
On the same counts, the results for “NCI-H510A (small cell lung carcinoma, semi-adherent, top dose 1.28 µM)” are 0.797 and 6.26.
With “NCI-H520 (lung squamous cell carcinoma, adherent, top dose 1.28 µM)”, the AUC was 0.502 and the negative-log IC50 (pIC50) was 7.09.
On the same counts, the results for “NCI-H522 (lung adenocarcinoma, adherent, top dose 1.28 µM)” are 0.691 and 6.51.
Regarding “NCI-H524 (small cell lung carcinoma, suspension, top dose 1.28 µM)”, the AUC was found to be 0.686 and the negative-log IC50 (pIC50) was 6.60.
Turning to “NCI-H526 (small cell lung carcinoma, suspension, top dose 1.28 µM)”, the AUC was 0.553 and the pIC50 was 6.95.
The matching figures for “NCI-H596 (lung adenocarcinoma, adherent, top dose 1.28 µM)”: 0.805 and 6.05.
The matching figures for “NCI-H630 (large intestine, adherent, top dose 10.24 µM)”: 0.957 and less than 4.99.
For “NCI-H647 (non-small cell lung carcinoma, adherent, top dose 1.28 µM)”, the AUC turned out to be 0.677 and the pIC50 was 6.59.
Regarding “NCI-H650 (lung adenocarcinoma, adherent, top dose 1.28 µM)”, the AUC was determined as 0.8 and the negative logarithm of the IC50 (pIC50) was 6.16.
The matching figures for “NCI-H661 (large cell lung carcinoma, adherent, top dose 1.28 µM)”: 0.784 and 6.18.
The matching figures for “NCI-H716 (large intestine, suspension, top dose 10.24 µM)”: 0.804 and 5.17.
The matching figures for “NCI-H720 (lung carcinoid, suspension, top dose 1.28 µM)”: 0.977 and less than 5.89.

As usually defined, the pIC50 is the negative decadic logarithm of the IC50, by convention in mol/L.

These data come from the supplement of paper PMC4967469.
